These results are taken from PubChem BioAssay AID463173 (ICCB-Longwood Screening Facility, Harvard Medical School, 2010).

The structures appear in SMILES notation. Among all 52,000 compounds or so, about 4,300 (8.3%) were called active. No stated cut-off is given here; in the data, active means survival mostly below about 52% (no sharp cut-off); inactive means mostly above about 56%. Some of the results follow.

The test relates to DeltatarO mutant. As to the kind of experiment: S. aureus survival, RN4220 and DeltatarO strains – OD600, teichoic acid synthesis inhibitors, primary screen (AID 463173). The conditions noted are these: S. aureus RN4220 wild type/DeltatarO growth, OD600, 18 h, active compounds read low, screened at 18.75 µg/mL (by protocol).
Regarding `CCCCNC(=O)C(CC)Sc1nc2ccccc2c(=O)n1CCc1ccc(OC)c(OC)c1` (configuration not stated), the survival is inactive: 122%.

Turning to `COCCN(CCOC)c1ncnc2c1c(-c1ccccc1)cn2-c1ccc(C)c(Cl)c1`, the survival was inactive: 67%. The same measure for `Cc1cc2ccccc2n2c(SCC(=O)O)nnc12`: inactive: 81%; for `Cc1ccc(NC(=O)C(C#N)Cc2ccncc2)cc1C` (configuration not stated): inactive: 67%; for `CC(C)(C)NC(=O)c1oc2ccccc2c1NC(=O)c1ccc(F)cc1`: inactive: 71%.

On to `CCC(=O)Nc1ccc(C(=O)Nc2c[nH]c(=O)[nH]c2=O)cc1`, for which the survival is inactive: 85%. The same measure for `Cc1ccccc1C(=O)c1cccn1CC(=O)NCc1cccc(Cl)c1`: inactive: 92%. The same measure for `COC(=O)CSc1n[nH]c(CNc2cccc(C)c2)n1`: inactive: 57%; for `Cc1ccc2[nH]c(=O)c3cc(C(=O)NCCc4ccc(Cl)cc4)sc3c2c1`: inactive: 74%. The value for `O=C(c1ccc2c(c1)N(Cc1cccc(Cl)c1)C(=O)c1ccccc1S2)N1CCOCC1` was inactive: 82%; that for `c1ccc(OCCn2c(COc3ccccc3)nc3ccccc32)cc1` was active: 0%; that for `O=C1c2oc3ccccc3c(=O)c2C(c2cccc(Cl)c2)N1c1ccccn1` (configuration not stated) was inactive: 67%. With `CCOc1ccc2nc(NCCNC(=O)COc3ccccc3)c(C#N)cc2c1`, the survival is inactive: 88%. `Cc1ccc(NC(=O)Cn2c(=O)n(Cc3ccc4c(c3)OCO4)c(=O)c3ccc(C(=O)NC4CCCCC4)cc32)c(C)c1`: the survival is inactive: 100%. The value for `CCc1ccc(NC(=O)Cn2c(-c3cncs3)nc3ccccc32)cc1` was inactive: 59%.

For the compound `CC(C)C(Nc1n[nH]c(=O)[nH]c1=O)C(=O)O` (configuration not stated), the survival is inactive: 98%. Take `CCn1c2ccccc2c2cc(CN3CCN(Cc4ccccc4C)CC3)ccc21`: the survival is active: -3%. For the compound `COc1ccc(C)cc1NC(=O)c1ccc2c(c1)nnn2C1CCCC1`, the survival is inactive: 87%. As for `COc1ccccc1C(=O)Nc1ccc(OCc2cc(=O)n3cc(C)sc3n2)cc1`, the survival is inactive: 130%. For `COc1ccccc1NC(=O)C1CCC(CNS(=O)(=O)c2ccc3c(c2)CC(C)N3C(C)=O)CC1` (configuration not stated), the survival was inactive: 58%. The value for `O=C(Nc1ccc(S(=O)(=O)N2CCCCCC2)cc1)c1cc(=O)c2ccccc2o1` was inactive: 70%; that for `Cc1cc(-n2c(C)nc3ccccc3c2=O)ccc1NC(=O)c1ccc([N+](=O)[O-])cc1` was inactive: 83%; that for `O=C(Cn1c(=O)c2cccn2c2cccnc21)NCc1ccccc1F` was inactive: 78%. Turning to `CCOC(=O)/C(C#N)=C1\CC2CCC1(C)C2(C)C` (configuration not stated), the survival was inactive: 98%.

As for `CC1=C(C(=O)Nc2ccc(C)cc2C)C(c2ccccc2F)n2nc(SCC(=O)c3ccc(C)cc3)nc2N1` (configuration not stated), the survival is inactive: 129%. Turning to `O=S(=O)(Nc1ccc(-c2ccc(N3CCCC3)nn2)cc1)c1cc(F)ccc1F`, the survival was inactive: 96%. The value for `Cc1cc2nc(-c3ccc(OCc4ccccc4)cc3)cc(C(F)(F)F)n2n1` was inactive: 79%; that for `CCc1ccc(NC(=O)c2cnc3sc(N4CCCC4)nn3c2=O)cc1` was inactive: 78%; that for `Cc1ccc(CN(Cc2ccco2)C(=O)c2oc3c(C)c(C)ccc3c2C)cc1` was inactive: 50%. As for `COCCNC(=O)c1cc2c(Cl)nc3ccc(C)cc3c2s1`, the survival is inactive: 88%. The value for `N#CC1=C(S)N(c2ccccc2)C2(CCCCC2)NC1=O` was inactive: 84%. The value for `COc1cccc(N(CC(=O)N2CCC(C)CC2)S(=O)(=O)c2ccc(C)cc2)c1` was inactive: 79%.

As to `COc1cc(OC)c(Nc2ncnc3onc(-c4cccc(Cl)c4)c23)cc1Cl`, the survival is inactive: 73%. The same measure for `CCC(C)NC(=O)CSc1nc2cc3c(cc2c(=O)n1CCCC(=O)NCc1ccc2c(c1)OCO2)OCO3` (configuration not stated): inactive: 79%; for `Cc1ccc(-c2nn3c(=O)cc(CN4CCN(C(=O)Nc5cc(Cl)ccc5C)CC4)nc3s2)cc1`: inactive: 113%. For `Cc1cc(C)cc(OCC(=O)N(Cc2ccc(C)o2)C2CCS(=O)(=O)C2)c1` (configuration not stated), the survival was inactive: 89%. The same measure for `CCOC(=O)c1c(C)sc(-c2c(-c3ccc(OC)c(F)c3)[nH]c3c2c(=O)[nH]c(=O)n3C)c1O`: inactive: 117%; for `CC(C)Oc1ccc(CNC(=O)c2ccc3nc(Cc4ccccc4)oc3c2)cc1`: inactive: 98%. The value for `CCC(CC)C(=O)Nc1ccc2nc(SCC(=O)N3c4ccccc4CC3C)sc2c1` (configuration not stated) was inactive: 82%. The value for `COc1ccc(Cn2nnnc2CN2CCN(c3cc(Cl)ccc3C)CC2)cc1` was inactive: 68%; that for `CC(C)COc1ccccc1C1CC(=O)Nc2cc3c(cc21)OCO3` (configuration not stated) was inactive: 101%. Take `N#CC1=C(N)OC2=C(C(=O)CCC2)C12CCCC2`: the survival was inactive: 96%.

Consider `CCCOc1cccc(C(=O)NCc2cccnc2)c1`, for which the survival is inactive: 81%. The value for `Clc1cccc(-n2ncc3c(N4CCN(Cc5ccccc5)CC4)ncnc32)c1` was active: 25%; that for `COc1cccc(CNC(=O)Cn2ccc3cc(S(=O)(=O)N4CCC(C)CC4)ccc32)c1` was inactive: 60%. The value for `CCc1ccc(NC(=O)CSc2nnc(-c3cc4occc4n3C)n2-c2ccccc2C)cc1` was inactive: 85%; that for `Cn1c(=O)c2c(-c3ccccc3Br)n(CCc3ccccc3)cc2n(C)c1=O` was active: 45%; that for `CCCCOc1ccc(C2=NC(c3ccccc3)=Nc3ccc(OC)cc3N2)cc1` was inactive: 74%. The value for `C=CCc1c(C)nc2nc(SCC(=O)Nc3ccc(OCC)cc3)nn2c1C` was inactive: 124%; that for `COc1ccccc1CNC(=O)Cn1nc(C)c2nn(-c3ccc(Cl)cc3)c(C)c2c1=O` was inactive: 63%; that for `CC(C)c1ccc(Nc2ncnc3c2c(-c2ccccc2)cn3-c2ccccc2)cc1` was inactive: 81%. Turning to `Cc1cc(C)cc(NC(=O)C2(c3cccs3)CCOCC2)c1`, the survival was inactive: 96%. Turning to `COC(=O)C1=C(C)NC(=O)C1(NC(=O)c1ccccc1C)C(F)(F)F` (configuration not stated), the survival was inactive: 74%. The same measure for `COCCNC(=O)CSc1nc(-c2ccc(C)cc2)nc2c1c(=O)n(C)c(=O)n2C`: inactive: 91%; for `COc1ccc(CCC(=O)NCc2ccc3c(c2)CCN3C(=O)c2ccc(C)cc2)cc1`: inactive: 75%; for `CCOCCCn1c(=N)c(C(=O)NCC2CCCO2)cc2c(=O)n3cc(C)ccc3nc21` (configuration not stated): inactive: 80%. In the case of `COc1cccc(-c2nc(SCC(=O)N3CCc4ccccc43)c3c(=O)n(C)c(=O)n(C)c3n2)c1`, the survival was inactive: 124%. The value for `O=S(=O)(c1ccccc1)N1CCc2ccccc21` was inactive: 86%; that for `O=C(O)c1n[nH]c2c1CCCCC2` was inactive: 82%; that for `COc1ccc(NC(=O)Cn2ccn(-c3ccccc3)c(=O)c2=O)cc1` was inactive: 52%.

Take `O=C(CCn1[nH]c(=O)c2ccccc2c1=O)NCCO`: the survival was inactive: 60%. The same measure for `Cc1ccc(-n2nc(C)c3c(C(=O)Nc4ccc(Br)c(C)c4)cc(C)nc32)cc1`: inactive: 101%; for `O=C(Nc1ccc(Cl)cc1-c1nc2ccccc2s1)c1ccco1`: inactive: 74%. `CCOc1ccc(CNC(=O)CCCn2c(=O)c3cccn3c3ccc(F)cc32)cc1`: the survival was active: 41%. The same measure for `Cn1c(=O)c(=O)n(C)c2cc(NC(=O)c3ccccc3Br)ccc21`: inactive: 103%; for `CC(=O)N1CCc2c(sc3c2c(=O)n(Cc2ccccc2)c(=O)n3CC(=O)Nc2ccc(C)c(F)c2)C1`: inactive: 102%. The same measure for `COc1ccc(CN2C(=O)C(NC(=O)c3ccccc3OC)(C(F)(F)F)N=C2c2ccccc2)cc1` (configuration not stated): inactive: 87%; for `CCc1ccc(NC(=O)CCn2cnc3ccccc3c2=O)cc1`: inactive: 82%. The value for `Cc1cc(C)n(CCOc2nonc2N)n1` was inactive: 75%. For `CCc1ccc(S(=O)(=O)c2nnn(-c3cccc(C)c3)c2N)cc1`, the survival is inactive: 60%. With `CCOc1ccccc1CNC(=O)CN1C(=O)CCc2cc(S(=O)(=O)N3CCCCC3)ccc21`, the survival is inactive: 89%. Regarding `Cc1cccc(OCC(=O)Nc2ccc3nc(Nc4cccc(Cl)c4)cc(C)c3c2)c1`, the survival is inactive: 115%. The value for `O=C(NC1CCCCC1)c1cccnc1Nc1ccccc1F` was inactive: 78%. Turning to `COc1ccccc1NC(=O)c1c(NC(=O)c2ccccc2Cl)sc2c1CCC2`, the survival is inactive: 78%. The same measure for `CN1CC=C2C(C#N)=C(N)C(C#N)(C#N)C(CCc3ccccc3)C2C1` (configuration not stated): inactive: 81%; for `CCC(C(=O)NCCCN(CC)CC)n1ncn2c(cc3occc32)c1=O` (configuration not stated): inactive: 98%. On to `CCOc1ccc(CNC(=O)C2Cc3cc(S(=O)(=O)N4CCCCCC4)ccc3N2C(C)=O)cc1` (configuration not stated), for which the survival is inactive: 74%. As for `Cc1ccc2c(c1)C1OCCC1C(c1ccncc1)N2` (configuration not stated), the survival is inactive: 86%. The value for `CC1OCC(OC(=O)c2ccccc2)CO1` (configuration not stated) was inactive: 108%. The value for `Cc1ccc(NC(=O)Cn2c(-c3nonc3N)nc3ccccc32)cc1Cl` was inactive: 77%; that for `O=C(CCn1cnc2onc(-c3ccc(F)cc3)c2c1=O)N1CCN(c2cccc(Cl)c2)CC1` was inactive: 76%. The value for `O=C(Nc1ccccc1C(F)(F)F)N1CCN(c2ccc3nnc(-c4ccc(F)cc4)n3n2)CC1` was inactive: 58%; that for `Cc1ccc2c(c1)c(C)cc(=O)n2CCC(=O)O` was inactive: 79%. On to `CCc1ccc(S(=O)(=O)c2nnn3c2nc(NCc2ccccc2OC)c2cc(Cl)ccc23)cc1`, for which the survival was inactive: 103%.

As to `Cc1ccccc1-c1noc(-c2ccccc2OCC(=O)Nc2ccccc2[N+](=O)[O-])n1`, the survival is inactive: 45%. The value for `CCc1ccc(NC(=O)CN(Cc2ccccc2)S(=O)(=O)c2ccc3nc(C)sc3c2)cc1` was inactive: 80%; that for `COc1ccc(C2NC(=O)N(C)C3=C2C(=O)N(c2ccc(C)cc2)C3)cc1` (configuration not stated) was inactive: 74%; that for `O=C1C2C(C(=O)N1CC1CCCO1)C1C=CC2C12CC2` (configuration not stated) was inactive: 80%.

As for `CCOc1ccc(OCC)c(NC(=O)C2CCN(c3cnccn3)CC2)c1`, the survival was inactive: 85%. As for `O=C(Nc1nnc(S(=O)(=O)N2CCOCC2)s1)c1ccc(F)cc1`, the survival was inactive: 78%.

`O=C(O)c1cc2ccccc2[nH]c1=O`: the survival is inactive: 107%. The same measure for `N#Cc1cccc(NC(=O)c2ccc3c(c2)N(Cc2cccc(Cl)c2)C(=O)c2ccccc2S3(=O)=O)c1`: inactive: 94%.
